The full ranking holds about 33,000 sequences; the median of “E-score (-0.5 to 0.5)” is about -0.04, and the highest 2% start at about 0.36. Some of the results follow.
Each sequence was assayed against T1, Hmlalpha2 (UniProt P0CY09) (assay: PBM E-score (8-mer binding enrichment) (E-score (-0.5 to 0.5)); higher = stronger / more preferred TF binding; most listed sequences are background and not binding sites). Conditions: protein concentration: 200 nM; construct: GST-full length.
T1 sequence: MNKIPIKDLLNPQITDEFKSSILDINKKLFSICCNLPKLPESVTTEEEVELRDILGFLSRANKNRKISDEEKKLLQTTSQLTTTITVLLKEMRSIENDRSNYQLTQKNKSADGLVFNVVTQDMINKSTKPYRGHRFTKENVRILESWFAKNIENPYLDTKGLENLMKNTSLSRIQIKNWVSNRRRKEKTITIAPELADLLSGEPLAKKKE
Procedure, shortened: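 Bound GST-tagged yeast transcription factors, applied at about 100-200 nM to double-stranded universal all-10-mer Agilent arrays, were detected with fluorescent anti-GST. Scans were normalised with masliner. A modified Wilcoxon-Mann-Whitney statistic, the E-score, was assigned to each ungapped eight-base word pooled with its reverse complement by the Universal PBM Analysis Suite.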

Sequence	PBM E-score
AGCTCAAA	0.106
CGACGTGA	0.121
AGGCTTGA	-0.123
ATCTCAAG	-0.0581
CAAGACTC	-0.133
CATCGCGA	0.151
CGGCACCC	-0.246
CCGGTCAA	0.0221
AAAGGGGT	-0.097
CCTACTTC	0.0165
AACAACGG	0.138
ATATACAC	0.422
CCGCTCAA	-0.209
AGACACTG	-0.0871
ATCAGCGC	-0.123
GCCTCCGA	-0.178
CTGCATCA	0.0148
AGGGGAAG	-0.151
CCTGTGTC	0.0583
CGTAGTAC	0.144
CTAAATAG	-0.0422
GATCGGGA	-0.302
AGTCAATG	-0.105
AGTTGGGC	-0.232
GGTTTTTA	0.27

Sequence	PBM E-score
GACCGAAA	-0.0454
ACCGTAAG	-0.0808
CCGCGGGA	-0.247
CAAAAGTA	0.141
AAGTCTCG	-0.145
ATGGGCTA	0.0703
CCGGAGGA	-0.327
ACTAACTA	-0.13
TCTTTTAA	0.183
CTCTCCAA	-0.0551
ATGGCACA	-0.0246
CCGTTGAG	-0.146
TCATGCCA	0.0681
CTATGGCA	-0.21
AGGCGGTG	-0.059
CAGCCCTC	-0.176
CCTCTGCA	-0.104
ACTAGCCG	-0.139
ACACGGCC	0.312
CCAACCAA	-0.201
CGCTGAGC	-0.0449
CCTACGAC	-0.178
TCGTAAAA	0.237
CGATTATC	-0.0707
AAACAACA	0.367

Sequence	PBM E-score
ATAATTTG	0.088
ACGCCACC	-0.207
TCTGAAGA	-0.288
TCTCTGCA	-0.196
CGGGGATA	-0.149
CCACATCG	-0.0429
AAGTTGTA	0.212
AAGGGTCG	0.044
CGCATCCA	-0.0106
GTAGTGAC	0.0202
GGCTGTAA	0.0946
CATCGACG	-0.109
AGGCATTA	-0.149
AGATCTCA	-0.0072
GCTCGATA	-0.0994
CGGGGTCC	-0.218
GAGAACGA	-0.0321
GCCGTTGA	-0.0609
GCTTATGA	-0.00062
GGCCATGA	-0.217
GTTGTACA	0.424
ACTGTCAC	-0.12
CAGGGTTA	-0.0331
AGACATCA	-0.0598
AGGTGTTA	0.256

Sequence	PBM E-score
CGACGTCC	-0.0809
ACGACGCT	-0.183
GCTCGAGA	-0.169
CCCGTTAA	-0.0105
ACAATAAA	0.027
ATAGCTAC	-0.00922
AACATTGG	0.165
TCACTGAA	-0.0881
AAAACTCG	0.225
CATCTCTC	-0.145
AGATGGAT	-0.265
AGTCGTTC	0.103
CACCTCGA	-0.0332
ACTCAAAA	0.093
CCTGCGCC	-0.269
ATTCTTAC	0.238
CCCAGGTC	-0.261
ATTAGAGG	-0.157
ATATAGAC	0.258
CACCGTAA	-0.0324
CCCCAGAC	-0.368
ACGCAACG	0.286
GGAAATAC	0.154
AGCGTTAC	0.00608
AGAACGGA	-0.0269

Sequence	PBM E-score
AGTCCGAC	-0.126
ATGGAGAA	-0.0153
ATCCGTAG	-0.309
TAAGATGA	0.0487
CTGCAATC	-0.107
GACAATAC	0.211
CTGTCAGA	-0.135
CCTCGACA	0.0653
CTACAGTA	0.0622
CAGCCACC	-0.181
GTGAGGTA	-0.0193
CTCAGACC	-0.166
AGTAATAT	0.245
CACAAAAG	0.0681
CAGGGCTC	-0.275
CTAATCGC	-0.00515
CGAGAAAA	-0.103
GCGCTACC	-0.202
AAGAAGCA	0.0176
TTATCAAA	0.182
GCGAGGCA	-0.14
TATGAACA	0.261
AAGACGCT	-0.212
ATTTAATA	0.316
AAATGGAA	-0.0973

Sequence	PBM E-score
ATTGCGGA	-0.0134
CCGCAAGG	-0.153
CTAACGCA	0.179
GAGTCCAC	-0.308
ACTCGAAT	-0.0605
CGTAGCGA	-0.114
ATTTTGTA	0.202
CACACGAG	0.152
ATTCTCCG	-0.172
AAACACGA	0.383
AGATTATA	0.0149
CAGCTTCA	-0.00309
TCAGCGAA	-0.0617
CGCGACCA	-0.00552
GGTGGGTA	-0.163
ATCCTTCG	-0.151
CACGATTA	0.28
AGTCTGAC	-0.218
GATGGCAC	-0.25
AAAACTGA	-0.0592
GAACTCAC	-0.0178
CTTGAAGC	-0.0461
ATAGGCGC	-0.124
ACTAAAGT	0.0015
AGGAAAGC	-0.203

Sequence	PBM E-score
CGACAATC	-0.19
ATTCCAGC	-0.0238
ACGTATAA	0.321
ACCCCTAG	-0.287
CCCCGTCA	-0.299
AGTCTTCC	-0.0857
GAATTTGC	-0.0777
GGTGAGAC	-0.249
CGGATGCA	-0.272
AACTGCAA	-0.0415
ATGTTCCC	0.0456
AGCACCAC	-0.192
CATAAAGA	0.198
CTACGAAA	-0.141
GCCGTGCC	-0.164
TCAGTACA	0.227
CTCTGACA	0.132
AATACCGT	-0.00384
CCGCGGAA	-0.123
CCCGGACC	-0.173
CACCGTGC	-0.00506
CCCGACCG	-0.316

— the supplement of paper PMC3334620
